# Measured values as given in PubChem BioAssay (Tox21).
# “And” between values parts separate entries of the source, which are not always exact repeats. Equal values may be shown once. Inconclusive results, whose numbers are uncertain, are shown with a selection of clear calls. For part of these data: Potencies beside an inconclusive call are fits to weak or partial responses and may not hold up. The source made the active and inactive calls. Unless noted, the call rests on the fitted dose curve; in most records, active means well fitted curve in the direction sought with a large enough effect in the repeat runs; inconclusive means weak or mixed curves; inactive means no such curve, though single readings can be large; an effect the other way counts as inactive or inconclusive.
# How the values were obtained:
# [1] = qHTS assay to identify small molecule HDAC inhibitors (AID 1259364);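 further: wild-type HCT-116 cells with endogenous class I/II HDAC activity; nearly all actives have a fitted effect of over 45% in size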
# Method in brief: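 HCT-116 wt cells, 1,500/well, overnight attach. Compounds (DMSO) 2 h, 37 °C. HDAC-Glo I/II, 30 min RT. Luminescence.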
# [2] = molecular target: Estrogen receptor (Homo sapiens) (UniProt P03372); test: qHTS assay to identify small molecule antagonists of the estrogen receptor alpha (ER-alpha) signaling pathway using the BG1 cell line in the presence of 0.1 nM 17-beta-estradiol (AID 1259244); further: nearly all actives have a fitted effect of over 50% in size
# UniProt P03372, sequence (P03372 whole entry, looked up): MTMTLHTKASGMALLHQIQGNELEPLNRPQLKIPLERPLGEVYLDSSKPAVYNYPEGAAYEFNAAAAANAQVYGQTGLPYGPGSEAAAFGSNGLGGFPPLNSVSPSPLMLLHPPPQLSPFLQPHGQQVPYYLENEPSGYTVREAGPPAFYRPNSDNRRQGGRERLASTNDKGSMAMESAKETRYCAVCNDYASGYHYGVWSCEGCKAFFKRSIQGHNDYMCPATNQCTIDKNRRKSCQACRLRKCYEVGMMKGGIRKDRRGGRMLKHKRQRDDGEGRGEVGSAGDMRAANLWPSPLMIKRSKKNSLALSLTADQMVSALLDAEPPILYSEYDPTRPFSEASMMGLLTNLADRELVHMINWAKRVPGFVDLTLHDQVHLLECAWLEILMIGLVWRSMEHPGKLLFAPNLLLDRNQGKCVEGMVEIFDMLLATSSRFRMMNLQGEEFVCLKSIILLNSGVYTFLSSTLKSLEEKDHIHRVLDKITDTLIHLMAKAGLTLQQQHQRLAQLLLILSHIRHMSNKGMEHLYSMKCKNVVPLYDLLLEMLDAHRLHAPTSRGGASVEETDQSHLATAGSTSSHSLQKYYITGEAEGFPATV
# Method in brief: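 Luciferase signal from VM7Luc4E2 ERE-reporter cells, co-dosed with test compound and 0.1 nM final 17beta-estradiol for 22 h, read with ONE-Glo.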
# [3] = qHTS assay to identify small molecule antagonists of the estrogen receptor beta (ER-beta) signaling pathway - cell viability counter screen (AID 1259382); further: nearly all actives have a fitted effect of over 55% in size
# Method in brief: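 CellTiter-Glo ATP luminescence measured after the LiveBLAzer read in the same wells; ER-beta-UAS-bla HEK293T cells, 16 hr compound treatment with 1nM 17-beta-estradiol agonist at 37C, 5% CO2.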
# [4] = molecular target: Androgen receptor (Homo sapiens) (UniProt P10275); test: qHTS assay to identify small molecule agonists of the androgen receptor (AR) signaling pathway in the presence of an antagonist (AID 1259381; calls by dose curve; further: nearly all actives have a fitted effect of over 15% in size); conditions: MDA-kb2 MMTV-luciferase, AR agonist + nilutamide, 16 h; activation: at 42.5 µM (top of the series)
# UniProt P10275, sequence (P10275 whole entry, looked up): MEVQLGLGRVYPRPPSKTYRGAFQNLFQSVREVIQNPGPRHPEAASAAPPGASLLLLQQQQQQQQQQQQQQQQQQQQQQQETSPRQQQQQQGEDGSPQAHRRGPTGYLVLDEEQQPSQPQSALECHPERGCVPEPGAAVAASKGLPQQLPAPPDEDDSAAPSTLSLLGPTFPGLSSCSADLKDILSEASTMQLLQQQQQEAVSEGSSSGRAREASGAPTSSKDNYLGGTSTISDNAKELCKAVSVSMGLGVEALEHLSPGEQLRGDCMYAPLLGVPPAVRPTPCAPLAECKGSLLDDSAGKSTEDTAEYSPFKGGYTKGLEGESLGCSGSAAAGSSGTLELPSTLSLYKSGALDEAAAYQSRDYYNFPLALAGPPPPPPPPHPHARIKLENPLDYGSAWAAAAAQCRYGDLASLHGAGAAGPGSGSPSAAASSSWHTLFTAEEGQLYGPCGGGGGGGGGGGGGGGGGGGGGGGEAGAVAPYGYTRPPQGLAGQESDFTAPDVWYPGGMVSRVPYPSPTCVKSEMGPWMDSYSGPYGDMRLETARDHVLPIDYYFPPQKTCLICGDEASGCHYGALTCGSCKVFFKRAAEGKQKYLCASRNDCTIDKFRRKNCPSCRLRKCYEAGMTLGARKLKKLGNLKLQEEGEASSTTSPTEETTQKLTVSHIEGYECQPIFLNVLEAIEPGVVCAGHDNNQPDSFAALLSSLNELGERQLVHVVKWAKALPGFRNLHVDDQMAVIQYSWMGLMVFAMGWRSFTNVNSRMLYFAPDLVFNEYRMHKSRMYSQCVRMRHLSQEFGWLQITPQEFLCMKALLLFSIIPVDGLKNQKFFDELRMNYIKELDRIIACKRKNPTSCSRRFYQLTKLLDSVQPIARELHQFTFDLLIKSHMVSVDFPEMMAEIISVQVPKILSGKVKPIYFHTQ
# Method in brief: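 Plated MDA-kb2 cells (3,000/well) were pre-incubated 5hr, given nilutamide (3.0uM final) or buffer, then dosed with compounds in DMSO at 15 concentrations. Luciferase activity was quantified by luminescence after 16hr at 37C.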
# [5] = qHTS assay to identify small molecule agonists of the sonic hedgehog signaling (Shh) pathway - cell viability counter screen (AID 1259366); further: nearly all actives have a fitted effect of over 50% in size
# Method in brief: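 In quantitative high-throughput format, 3T3 Gli1-Luc cells were exposed to compounds for 24hr and multiplexed for viability using CellTiter-Fluor, incubated 1hr at 37C before the fluorescence read.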
# [6] = molecular target: Estrogen receptor beta (Homo sapiens) (UniProt Q92731); test: qHTS assay to identify small molecule antagonists of the estrogen receptor beta (ER-beta) signaling pathway (AID 1259378; active means well fitted inhibition curve with a large enough effect in the signal ratio in the repeat runs, not every such curve was filed as active; inconclusive means weak or mixed curves, or effect the other way; inactive means no such curve, though single readings can be large or run the other way; the % refers to the signal ratio; on activity, negative = inhibition: on the % scale 0 is the no-effect control and ±100 the full control effect); conditions: ER-beta-UAS-bla HEK293T, beta-lactamase FRET ratio, 16 h; activity, negative = inhibition: at 92.4 µM (top of the series) unless noted
# UniProt Q92731, sequence (Q92731 whole entry, looked up): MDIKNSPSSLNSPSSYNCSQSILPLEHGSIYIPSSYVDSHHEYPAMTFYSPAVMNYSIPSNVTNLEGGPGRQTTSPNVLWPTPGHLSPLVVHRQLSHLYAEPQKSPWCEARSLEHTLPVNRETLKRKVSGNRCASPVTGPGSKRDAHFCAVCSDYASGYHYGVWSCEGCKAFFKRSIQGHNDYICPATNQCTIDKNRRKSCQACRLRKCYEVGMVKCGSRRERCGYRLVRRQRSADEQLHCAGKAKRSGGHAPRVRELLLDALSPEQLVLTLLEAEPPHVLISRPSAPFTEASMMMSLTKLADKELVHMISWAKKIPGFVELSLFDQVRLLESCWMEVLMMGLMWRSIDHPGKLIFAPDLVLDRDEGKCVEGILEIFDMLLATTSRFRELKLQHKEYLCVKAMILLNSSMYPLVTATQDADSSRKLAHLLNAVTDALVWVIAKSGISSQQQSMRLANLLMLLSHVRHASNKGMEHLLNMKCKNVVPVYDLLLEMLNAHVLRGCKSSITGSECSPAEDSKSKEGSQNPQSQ
# Method in brief: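 Antagonist mode: compounds added to beta-lactamase reporter HEK293T ER-beta-UAS cells stimulated with E2 (1nM final), 16 hr at 37C. LiveBLAzer B/G FRET substrate, 2 hours room temperature, fluorescence read-out.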
# [7] = qHTS assay to identify small molecule agonists of the estrogen receptor beta (ER-beta) signaling pathway - cell viability counter screen (AID 1259380); further: nearly all actives have a fitted effect of over 30% in size
# Method in brief: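 Compounds dissolved in DMSO were pin-transferred onto ER-beta-UAS-bla HEK293T cells that had settled 6 hr, and exposure ran 16 hr at 37C. Following the reporter read, CellTiter-Glo luminescence after 30 min at room temperature indicated cytotoxicity.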
# [8] = qHTS assay to identify small molecule antagonists of the sonic hedgehog signaling (Shh) pathway (AID 1259369; calls by dose curve; further: nearly all actives have a fitted effect of over 45% in size)
# Method in brief: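 Read-out is luminescence from a firefly luciferase gene controlled by the Gli1 response element, in 3T3Gli1-Luc cells pre-incubated 4hr then exposed to compounds and conditioned medium for 24hr.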
# [9] = qHTS assay to identify small molecule agonists of the androgen receptor (AR) signaling pathway in the presence of an antagonist - cell viability counter screen (AID 1259379); further: nearly all actives have a fitted effect of over 25% in size
# Method in brief: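 Each compound was tested at 15 concentrations on MDA-kb2 cells in the presence of 3.0uM nilutamide. Viability was measured by CellTiter-Fluor fluorescence after a 16 hr incubation at 37C in a CO2-free atmosphere.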
# [10] = qHTS assay to identify small molecule antagonists of the sonic hedgehog signaling (Shh) pathway - cell viability counter screen (AID 1259367); further: nearly all actives have a fitted effect of over 55% in size
# Method in brief: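 CellTiter-Fluor signal in conditioned medium-stimulated 3T3 Gli1-Luc cells, 23 hr compound exposure, 37C.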
# [11] = qHTS assay to identify small molecule agonists or antagonists of the thyroid stimulating hormone receptor (TSHR) signaling pathway - wild type cell line counter screen (AID 1259384; calls by dose curve); conditions: HEK293 wild type, cAMP HTRF counter-screen; cAMP activity change: at 92.4 µM (top of the series), stronger effect = higher value unless noted
# Method in brief: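 Counter screen in untransfected Hek293: compounds (15-point titration, triplicate) plus phosphodiesterase inhibitor Ro20-1724 added after 18 h plating; 30 min RT. Intracellular cAMP via competitive d2/cryptate immunoassay, 1 h incubation.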
# [12] = molecular target: Estrogen receptor beta (Homo sapiens) (UniProt Q92731); test: qHTS assay to identify small molecule agonists of the estrogen receptor beta (ER-beta) signaling pathway (AID 1259377; active means well fitted activation curve with a large enough effect in the signal ratio in the repeat runs, not every such curve was filed as active; inconclusive means weak or mixed curves, or effect the other way; the % refers to the signal ratio; on activation: on the % scale 0 is the no-effect control and ±100 the full control effect); conditions: ER-beta-UAS-bla HEK293T, beta-lactamase FRET ratio, 16 h; activation: at 92.4 µM (top of the series) unless noted
# Method in brief: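 Reporter cells (HEK293T, ER-beta-UAS-bla) receive compounds or DMSO after a 6 hr pre-incubation. They then incubate 16 hr at 37C/5% CO2, and fluorescence from LiveBLAzer B/G substrate is measured after 2 hours at room temperature.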
# [13] = molecular target: Estrogen receptor (Homo sapiens) (UniProt P03372); test: qHTS assay to identify small molecule agonists of the estrogen receptor alpha (ER-alpha) signaling pathway in the presence of an antagonist (AID 1259383; calls by dose curve; further: nearly all actives have a fitted effect of over 15% in size)
# Method in brief: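 Luminescent ERE-luciferase reporter, VM7Luc4E2 cells (endogenous ER-alpha); 10.0nM ICI-182,780 final; 15-point compound titration; 22hr at 37C; ONE-Glo, 30min RT.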
# Potency means the concentration at half of the fitted maximal effect; tags describe the fitted curve by direction and shape or compound fluorescence and quenching.
compound,measurement,setting,value
O=C(O)Cc1ccc(-c2ccccc2)cc1,Potency,[1],inconclusive: 26.6 µM [inhibitor]
CCCCCOc1ccccc1/C(=C\SC)n1ccnc1,Potency,[2],"inconclusive: 16.8 µM [inhibitor, partial curve]"
same,Potency,[3],active: 29.8 µM
Nc1ccc(C(=O)Nc2ccccc2N)cc1,Potency,[4],active: 5.96 µM
CCC(C)(C)C(=O)O,Potency,[5],inactive
same,Potency,[6],inactive
same,Potency,[7],inactive
Nc1ccccc1S(=O)(=O)c1ccccc1,Potency,[5],inactive
same,Potency,[8],"inconclusive: 43.3 µM [inhibitor, partial curve, poor fit]"
Cc1ccccc1N=Nc1ccc(N=Nc2c(O)ccc3ccccc23)c(C)c1,Potency,[5],inactive
same,Potency,[9],"inconclusive: 4.22 µM [cytotoxic, full curve]"
Nc1cc(C(F)(F)F)ccc1S,Potency,[5],"inconclusive: 33.5 µM [cytotoxic, single point]"
same,Potency,[10],"inconclusive: 33.5 µM [cytotoxic, single point]"
same,"activity, negative = inhibition",[6],inconclusive: -47.4% [at 42.5 µM]
same,Potency,[7],active: 21.1 µM
Cc1c(-c2cccnc2)c2ccccc2n1CCCCC(=O)O,Potency,[5],inactive
same,Potency,[7],inactive
Nc1cccc(N)n1,Potency,[5],"inconclusive: 52.6 µM [rising, partial curve]"
same,Potency,[10],"inconclusive: 33.2 µM [rising, partial curve]"
same,Potency,[11],inconclusive: 64.8 µM
CCCCCCCC/C=C\CCCCCCCC(=O)NCc1ccc(O)c(OC)c1,Potency,[5],inactive
same,Potency,[7],"inconclusive: 33.5 µM [cytotoxic, single point]"
CCOC(=O)C(C#N)=C(c1ccccc1)c1ccccc1,Potency,[5],inactive
same,Potency,[8],inconclusive: 48.6 µM [inhibitor]
same,Potency,[6],active: 4.33 µM and active: 5.31 µM
C/C=C1/C(=O)C[C@H]2[C@@H]3CCC4=CC(=O)CC[C@]4(C)[C@H]3CC[C@]12C,Potency,[5],"inconclusive: 27.2 µM [cytotoxic, single point]"
same,Potency,[8],"inconclusive: 24.3 µM [inhibitor, partial curve]"
same,Potency,[12],"inconclusive: 43.1 µM [rising, partial curve]"
same,Potency,[6],"inconclusive: 54.3 µM [rising, partial curve]"
same,Potency,[9],active: 54.3 µM
same,Potency,[7],"inconclusive: 27.2 µM [cytotoxic, partial curve]"
same,Potency,[3],inactive
CCN(Cc1cccnc1)C(=O)c1cccc(Cl)c1[C@]1(C)C(=O)N(Cc2ccc(OC)cc2OC)c2ccc(Cl)cc21,Potency,[5],"inconclusive: 25.5 µM [cytotoxic, full curve]"
same,Potency,[10],"inconclusive: 25.5 µM [cytotoxic, partial curve]"
same,Potency,[6],active: 8.07 µM
same,Potency,[9],"inconclusive: 64.1 µM [cytotoxic, single point]"
same,Potency,[7],"inconclusive: 6.41 µM [cytotoxic, full curve]"
C[Si](C)(C)Cl,Potency,[5],inactive
same,Potency,[8],inactive
Cc1cccc(N(C)C(=S)Oc2ccc3ccccc3c2)c1,Potency,[5],"inconclusive: 11.9 µM [rising, partial curve, poor fit]"
same,Potency,[8],"inconclusive: 33.5 µM [inhibitor, single point]"
same,Potency,[7],"inconclusive: 61.1 µM [cytotoxic, partial curve] and inconclusive: 13.3 µM [cytotoxic, partial curve]"
same,Potency,[13],"inconclusive: 30.6 µM [activator, partial curve]"
CCc1nn(C2CCCCC2)c2cc(C3(C#N)CCC(C(=O)O)CC3)ccc12 (stereo not given),Potency,[5],active: 30.6 µM
same,Potency,[6],active: 13.7 µM
same,Potency,[9],"inconclusive: 24.3 µM [cytotoxic, partial curve, poor fit]"
same,Potency,[7],active: 8.63 µM
Nc1nc(N)c2nc(CNc3ccc(C(=O)N[C@@H](CCC(=O)O)C(=O)O)cc3)cnc2n1,Potency,[5],"inconclusive: 9.04 µM [rising, partial curve]"
same,Potency,[8],inactive
same,activation,[12],inconclusive: 9.95%
Nc1ncn([C@@H]2O[C@H](CO)[C@@H](O)[C@H]2O)c(=O)n1,Potency,[5],"inconclusive: 34.4 µM [cytotoxic, partial curve]"
same,Potency,[10],"inconclusive: 17.2 µM [cytotoxic, full curve] and inconclusive: 21.1 µM [cytotoxic, partial curve]"
same,Potency,[9],"inconclusive: 6.86 µM [cytotoxic, full curve] and inconclusive: 5.96 µM [cytotoxic, full curve]"
same,Potency,[7],"active: 5.45 µM and inconclusive: 3.76 µM [cytotoxic, full curve]"
O=S(c1cc(Cl)cc(Cl)c1O)c1cc(Cl)cc(Cl)c1O,Potency,[5],"inconclusive: 21.1 µM [cytotoxic, partial curve, poor fit]"
same,Potency,[8],active: 21.1 µM
same,Potency,[12],"inconclusive: 15 µM [rising, single point]"
same,Potency,[6],"inconclusive: 29.8 µM [inhibitor, single point]"
same,Potency,[7],active: 29.8 µM
same,Potency,[3],"inconclusive: 29.8 µM [cytotoxic, single point]"
